Positions count from the first letter of the chain named. Names may count otherwise. No constants are given. Whether binding was seen depends on the method and setting. Some entries that bind do so weakly or less than the wild type.
T1: YoaA (wild type), Escherichia coli XP-D/DinG family DNA helicase (Escherichia coli) (UniProt P76257)
T1 sequence: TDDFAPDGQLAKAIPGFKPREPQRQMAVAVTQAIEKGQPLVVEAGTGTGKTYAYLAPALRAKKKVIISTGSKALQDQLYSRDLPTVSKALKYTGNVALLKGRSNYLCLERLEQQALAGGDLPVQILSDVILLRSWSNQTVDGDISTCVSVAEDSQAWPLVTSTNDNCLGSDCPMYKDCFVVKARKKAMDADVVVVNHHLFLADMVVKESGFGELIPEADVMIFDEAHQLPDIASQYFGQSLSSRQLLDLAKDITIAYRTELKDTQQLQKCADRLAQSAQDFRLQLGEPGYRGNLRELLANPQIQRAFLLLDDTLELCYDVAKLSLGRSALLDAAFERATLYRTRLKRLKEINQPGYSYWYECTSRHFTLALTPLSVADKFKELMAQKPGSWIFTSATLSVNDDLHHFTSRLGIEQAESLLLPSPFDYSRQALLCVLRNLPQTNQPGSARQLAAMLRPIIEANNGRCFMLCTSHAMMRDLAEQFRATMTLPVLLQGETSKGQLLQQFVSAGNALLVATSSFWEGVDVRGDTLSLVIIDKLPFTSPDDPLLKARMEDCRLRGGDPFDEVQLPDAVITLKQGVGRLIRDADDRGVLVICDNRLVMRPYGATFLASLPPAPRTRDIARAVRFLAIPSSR

By UniProt entry, the sequences of proteins in these tests, tags left out. Residues count along the entry.
UniProt P28905, residues 2-147: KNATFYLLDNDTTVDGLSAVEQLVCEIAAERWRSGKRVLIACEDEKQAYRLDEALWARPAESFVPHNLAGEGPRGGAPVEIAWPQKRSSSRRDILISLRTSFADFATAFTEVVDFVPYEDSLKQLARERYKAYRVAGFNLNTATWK

T2: YoaAΔ619–636 C-terminal truncation (Escherichia coli) (UniProt P76257)
T2 sequence: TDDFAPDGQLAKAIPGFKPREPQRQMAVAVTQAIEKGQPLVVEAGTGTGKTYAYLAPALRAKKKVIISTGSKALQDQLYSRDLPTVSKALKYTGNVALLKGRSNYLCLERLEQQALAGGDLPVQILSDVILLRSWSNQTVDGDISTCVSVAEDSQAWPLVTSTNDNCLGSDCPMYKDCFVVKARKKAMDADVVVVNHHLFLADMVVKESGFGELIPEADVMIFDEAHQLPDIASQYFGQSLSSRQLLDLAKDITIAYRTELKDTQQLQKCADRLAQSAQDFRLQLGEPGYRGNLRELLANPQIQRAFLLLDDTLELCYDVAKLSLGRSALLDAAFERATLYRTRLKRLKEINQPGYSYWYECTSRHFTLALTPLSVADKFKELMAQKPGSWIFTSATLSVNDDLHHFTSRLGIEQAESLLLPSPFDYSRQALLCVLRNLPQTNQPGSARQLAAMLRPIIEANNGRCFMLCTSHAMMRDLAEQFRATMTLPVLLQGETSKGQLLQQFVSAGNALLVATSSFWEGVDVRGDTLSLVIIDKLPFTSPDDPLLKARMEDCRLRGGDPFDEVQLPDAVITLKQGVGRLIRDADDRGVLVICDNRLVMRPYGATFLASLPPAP

T3: YoaA R619A (Escherichia coli) (UniProt P76257)
T3 sequence: T1 sequence with R618A

T4: YoaA T620A (Escherichia coli) (UniProt P76257)
T4 sequence: T1 sequence with T619A

B1: YoaA (wild type), Escherichia coli XP-D/DinG family DNA helicase (enzyme, UniProt P76257 2-636)
chain: T1 sequence
B2: YoaA R619A (enzyme, UniProt P76257 2-636)
chain: T1 sequence with R618A
B3: YoaA T620A (enzyme, UniProt P76257 2-636)
chain: T1 sequence with T619A
B4: YoaAΔ619–636 C-terminal truncation (domain or fragment, UniProt P76257 2-618)
chain: T2 sequence

Legend:
Assay in all cases: two-hybrid; Matchmaker Gold yeast two-hybrid, Gal4 AD and BD fusions in both orientations (HolC-BD with YoaA-AD; HolC-AD with YoaA-BD); growth on -His plates, 2 or 3 days at 30°C; three independent platings
[1] = target: T1, YoaA (wild type), Escherichia coli XP-D/DinG family DNA helicase (Escherichia coli)
[2] = target: T2, YoaAΔ619–636 C-terminal truncation (Escherichia coli)
[3] = target: T3, YoaA R619A (Escherichia coli)
[4] = target: T4, YoaA T620A (Escherichia coli)
[5] = target: HolC (χ subunit of DNA polymerase III holoenzyme), Escherichia coli (Escherichia coli) (UniProt P28905)

Molecule | binding [5] | other results
HolC (χ subunit of DNA polymerase III holoenzyme), Escherichia coli (from UniProt P28905 2-147) | – | binding [1]: binds; binding [2]: no binding; binding [3]: no binding; binding [4]: no binding
B1 | binds | –
B2 | no binding | –
B3 | no binding | –
B4 | no binding | –
